Results: PubChem BioAssay AID2147 (National Center for Advancing Translational Sciences (NCATS), 2009)
About 3,600 (1.6%) of roughly 230,000 compounds were called active. Inconclusive means that the source gave no clear call. Such entries were picked first, then a sample of the others. The call rests on the fitted dose curve; in most records, active means well fitted inhibition curve with a large enough effect (not every such curve was filed as active); inconclusive means small, poorly fitted or top-dose-only effect, or another doubt; inactive means no such curve, though single readings can be large or run the other way. Where the call is inconclusive, the potency comes from a doubtful curve fit. The source holds several records for some structures; these can differ, active in one and inactive in another.

Target: Lysine-specific demethylase 4E (Homo sapiens) (UniProt B2RXH2)
Sequence of UniProt B2RXH2 (B2RXH2 whole entry, looked up, the tested form may be a part): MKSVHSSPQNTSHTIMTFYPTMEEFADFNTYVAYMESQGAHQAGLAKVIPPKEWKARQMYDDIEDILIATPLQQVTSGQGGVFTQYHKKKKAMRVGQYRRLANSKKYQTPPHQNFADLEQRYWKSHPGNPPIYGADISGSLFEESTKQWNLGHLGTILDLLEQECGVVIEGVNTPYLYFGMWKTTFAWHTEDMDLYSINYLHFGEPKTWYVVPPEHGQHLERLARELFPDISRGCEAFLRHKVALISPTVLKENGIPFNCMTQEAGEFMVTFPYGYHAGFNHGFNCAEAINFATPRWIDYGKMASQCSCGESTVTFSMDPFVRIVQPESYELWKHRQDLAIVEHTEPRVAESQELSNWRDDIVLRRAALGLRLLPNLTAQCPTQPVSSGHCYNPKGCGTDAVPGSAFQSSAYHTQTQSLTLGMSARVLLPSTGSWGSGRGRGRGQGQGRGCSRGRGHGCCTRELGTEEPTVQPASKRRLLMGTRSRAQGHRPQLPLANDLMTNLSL
Assay: qHTS Assay for Inhibitors of Human Jumonji Domain Containing 2E (JMJD2E)
Conditions: JMJD2E catalytic domain, FDH-coupled NADH fluorescence (FDH is formaldehyde dehydrogenase); series mostly up to 57.1 µM; activity change, negative = inhibition: at the top concentration
Further: nearly all actives have a fitted effect of over 50% in size.
Potency means the concentration at half of the fitted maximal effect; tags describe the fitted curve by direction and shape.
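Wherever activity change, negative = inhibition is given: 0% = wells with enzyme and -100% = buffer wells without enzyme.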

Q: `O=C(CCC(=O)Nc1ccccc1Cl)N/N=C/c1ccccc1` was tested. Which “activity change, negative = inhibition” value did it give?
A: inactive: -1.46%

Q: For `O=C(Nc1ccccc1)c1ccc(NC2CCCCC2)c(S(=O)(=O)N2CCOCC2)c1`, which Potency is on record?
A: inconclusive: 31.6 µM [inhibitor, single point]

Q: Which Potency does the source give for `Cc1ccccc1/C=C1\OC(=O)c2ccccc21` here?
A: inconclusive: 14.1 µM [inhibitor, partial curve]

Q: Which “activity change, negative = inhibition” value does the source give for `COc1ccc(/C=C2\N=C(c3ccccc3)NNC2=O)cc1` here?
A: inactive: 0.454%

Q: How did the “activity change, negative = inhibition” value turn out when `COc1ccc(N(CC(=O)Nc2ccc3c(c2)OCO3)S(=O)(=O)c2ccccc2)cc1` was run?
A: inactive: 7.71%

Q: For `CCc1cccc(C)c1NC(=O)CSc1nc(-c2ccccc2F)nc2nc[nH]c12`, which Potency is on record?
A: inconclusive: 39.8 µM [inhibitor, single point]

Q: With `O=C(O)Cn1c(=O)cnc2ccccc21` as the molecule, how does the Potency read?
A: inconclusive: 28.2 µM [inhibitor, partial curve]

Q: Which Potency does the source give for `Cc1onc(-c2ccccc2Cl)c1C(=O)Nc1nnc(-c2ccc(Br)cc2)s1` here?
A: inconclusive: 14.1 µM [inhibitor, partial curve]

Q: `COC(=O)CCC(=O)OC1(C)C(=O)C=C2C=C(C3CC3)N(Cc3ccc4c(c3)OCO4)C=C2C1=O` (stereo not given) was tested. Which Potency did it give?
A: active: 15.8 µM

Q: For `Cc1[nH]nc2c1C(c1ccccc1)C1=C(CC(C)(C)CC1=O)N2` (stereo not given), which Potency is on record?
A: inconclusive: 39.8 µM [inhibitor, single point]

Q: How did the “activity change, negative = inhibition” value turn out when `COc1ccc(OCCCN2CCCC(C)C2)cc1` (stereo not given) was run?
A: inactive: -14.6%

Q: Which Potency does the source give for `CC1=NN(c2ccccc2)C(=O)/C1=C\c1cn(-c2ccccc2)nc1C` here?
A: inconclusive: 7.94 µM [inhibitor, partial curve]

Q: How did the “activity change, negative = inhibition” value turn out when `Cc1ccc(CCNC(=O)C2CCC(CNc3c(N4CCC(C)CC4)c(=O)c3=O)CC2)cc1` (stereo not given) was run?
A: inactive: -3.1%

Q: For `O=C(CCCCCN1C(=O)c2cccc3cccc(c23)C1=O)NCCO`, which Potency is on record?
A: inconclusive: 25.1 µM [inhibitor, partial curve]

Q: Which Potency does the source give for `CCOC(=O)c1cc2c(=O)n3ccccc3nc2n(C(C)C)c1=NC(=O)c1c(-c2ccccc2Cl)noc1C` here?
A: inconclusive: 10 µM [inhibitor, partial curve]

Q: For `Cc1ccc(C(=O)NCCOc2cccc3cccnc23)cc1Cl`, which Potency is on record?
A: inconclusive: 35.5 µM [inhibitor, single point]

Q: `COCCNCC(=O)Nc1nc(C)cs1` was tested. Which Potency did it give?
A: inconclusive: 12.6 µM [inhibitor, partial curve, poor fit]

Q: With `COc1ccc(OC)c2sc(NC(=O)CCSc3ccccc3)nc12` as the molecule, how does the Potency read?
A: inconclusive: 31.6 µM [inhibitor, single point]

Q: `CC(C)OP(=O)(c1ccc(N(C)C)cc1)C(O)c1cccnc1` (stereo not given) was tested. Which Potency did it give?
A: inconclusive: 39.8 µM [inhibitor, single point]

Q: With `CC(=O)N(C(C)=O)c1nc(-c2ccccc2)cn1/N=C/c1cccc([N+](=O)[O-])c1` as the molecule, how does the “activity change, negative = inhibition” value read?
A: inactive: -10.7%

Q: `COc1cccc(C(=O)CC(=O)C(=O)Nc2cc(Cl)c(OC)cc2OC)c1` was tested. Which Potency did it give?
A: inconclusive: 28.2 µM [inhibitor, single point]

Q: How did the Potency turn out when `CN1CCN(c2nc(-c3cccnc3)nc3scc(-c4ccccc4)c23)CC1` was run?
A: inconclusive: 28.2 µM [inhibitor, single point]

Q: `CC(NC(=O)c1ccc(Br)o1)c1ccccc1` (stereo not given) was tested. Which “activity change, negative = inhibition” value did it give?
A: inactive: -0.349%

Q: How did the Potency turn out when `COc1ccc(/C=C/C(=O)Nc2nnc(C(C)C)s2)cc1OC` was run?
A: inconclusive: 25.1 µM [inhibitor, partial curve]

Q: How did the Potency turn out when `CC(C)CCC(CCN1CCOCC1)c1ccc2c(c1)OCO2` (stereo not given) was run?
A: inconclusive: 39.8 µM [inhibitor, single point]

Q: With `c1ccc(N2CCN(c3ncnc4sc5c(c34)CCC5)CC2)cc1` as the molecule, how does the Potency read?
A: inconclusive: 39.8 µM [inhibitor, single point]

Q: How did the “activity change, negative = inhibition” value turn out when `O=Cc1ccc(-c2ccccc2OC(F)(F)F)o1` was run?
A: inactive: 0.712%

Q: How did the Potency turn out when `COc1ccc(C2CC(c3ccc4ccccc4c3)=NN2C(=O)COC(=O)C2CCC(=O)N2)cc1` (stereo not given) was run?
A: inconclusive: 35.5 µM [inhibitor, partial curve]

Q: `COc1c(O)ccc(/C=C(\C#N)c2nc3ccccc3[nH]2)c1[N+](=O)[O-]` was tested. Which Potency did it give?
A: inconclusive: 35.5 µM [inhibitor, single point]

Q: With `O=[N+]([O-])c1ncn(Cc2c(Cl)cccc2Cl)n1` as the molecule, how does the “activity change, negative = inhibition” value read?
A: inactive: 7.42%

Q: For `Cc1ccc(S(=O)(=O)Nc2ccc(S(=O)(=O)Nc3cc(C)nc(C)n3)cc2)cc1`, which Potency is on record?
A: inconclusive: 35.5 µM [inhibitor, single point]

Q: `C=CCNc1nc(-c2ccc(O)c(C(N)=O)c2)cs1` was tested. Which “activity change, negative = inhibition” value did it give?
A: inactive: -21.8%

Q: `Cc1cc([N+](=O)[O-])cc(/C=N/n2c(C)nc3ccccc3c2=O)c1O` was tested. Which Potency did it give?
A: inconclusive: 39.8 µM [inhibitor, single point]

Q: How did the “activity change, negative = inhibition” value turn out when `CC(=O)c1c(COC(=O)c2ccccc2)nc2ccccc2[n+]1[O-]` was run?
A: inactive: -3.54%

Q: How did the “activity change, negative = inhibition” value turn out when `O=C(COC(=O)/C=C/c1ccco1)Nc1ccccc1` was run?
A: inactive: -6.35%

Q: With `COc1ccccc1-c1nnc(SC2CCc3ccccc3NC2=O)s1` (stereo not given) as the molecule, how does the Potency read?
A: inconclusive: 31.6 µM [inhibitor, single point]

Q: Which Potency does the source give for `Cc1ccc(CN(Cc2cc3cc4c(cc3[nH]c2=O)OCCO4)Cc2nnnn2Cc2ccco2)cc1` here?
A: inconclusive: 28.2 µM [inhibitor, partial curve]

Q: How did the Potency turn out when `Cn1cc(CNCc2ccc(-n3cccn3)cc2)c(-c2ccccc2F)n1` was run?
A: inconclusive: 28.2 µM [inhibitor, single point]

Q: For `O=C(COC(=O)c1ccc2c(c1Cl)C(=O)c1ccccc1C2=O)NC1CCCCC1`, which “activity change, negative = inhibition” value is on record?
A: inactive: -13.5%

Q: For `COc1ccc2c(c1OC)C(=O)OC2Nc1ccccc1S(=O)(=O)C(F)F` (stereo not given), which Potency is on record?
A: inconclusive: 35.5 µM [inhibitor, single point]

Q: How did the Potency turn out when `CC1=C(C(=O)Nc2ccccc2)C(c2ccc(C)cc2)N=C(Nc2nc3ccccc3o2)N1` (stereo not given) was run?
A: inconclusive: 22.4 µM [inhibitor, partial curve]

Q: Which “activity change, negative = inhibition” value does the source give for `O=C(Nc1nccs1)c1csc2c1CCCC2` here?
A: inactive: 2.19%

Q: How did the Potency turn out when `Fc1ccc(COc2ccc3ccccc3c2CNc2nn[nH]n2)cc1` was run?
A: inconclusive: 39.8 µM [inhibitor, single point]

Q: For `O=C(CSc1nnc2c(n1)[nH]c1ccc(S(=O)(=O)N3CCOCC3)cc12)Nc1ccccc1Cl`, which Potency is on record?
A: inconclusive: 25.1 µM [inhibitor, single point]

Q: With `C#CCOCCOCCOCCNc1nc(N2CCN(C(=O)[C@H]([C@@H](C)CC)n3cc(CCCN=C(N)N)nn3)CC2)nc(N2CCN(C(=O)[C@H]([C@@H](C)CC)n3cc(CCCN=C(N)N)nn3)CC2)n1` as the molecule, how does the Potency read?
A: inconclusive: 28.2 µM [inhibitor, single point]
